Results from the supplement of paper PMC10126150.
Values marked as one replicate rest on one cluster of the flow cell; about a third of the high ones do not repeat.

Test system: ATP
Test: switch fluorescence ratio, 500 uM ATP over buffer (Cy3 cluster intensity, sum of 5 cycles each) (fold (ratio)); higher = stronger signal-on switching upon ATP binding; sequences stand for … in TCGTCGGCAGCGTCAGATGTGTATAAGAGACAGTTTTTTTTTTTTTTTTTTTTTTTTT…TC
Settings: aptamer strand: ATP DNA aptamer (quencher-CACCTGGGGGAGTATTGCGGAGGAAGG + anchor), 100 nM annealed; ATP concentration: 500 uM; one replicate
How it was run: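 Five buffer/ATP imaging cycles were run on Cy3-labelled switching-strand clusters on a modified Illumina MiSeq flow-cell, with NaOH stripping and re-annealing between cycles. In each cycle, clusters annealed to 100 nM quencher-labelled ATP aptamer were imaged in selection buffer, then after 15 min with 500 uM ATP at 22 °C. Per cluster, the fluorescence ratio is summed target-cycle over summed buffer-cycle Cy3 intensity, averaged per switch-domain sequence. Only clusters within 100-1000 RFU were kept.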
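Note: ATP exposure 15 min at 22 °C before imaging.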

Row | Sequence | switch fluorescence ratio
1 | GTGGAATAGG | 0.963
2 | AGACCCCAG | 0.928
3 | TTAAGAGTAT | 1.02
4 | GTGTAAAGGG | 1.03
5 | GGCTATTCA | 1.03
6 | TGCGGAGTTA | 1
7 | GATAAAATAT | 1
8 | GACCATCTCG | 1.03
9 | TCACTATAAC | 1.06
10 | TATGTGTAAA | 0.987
11 | CTCGTTCGTA | 0.974
12 | TTAGATGATG | 0.968
13 | GTCGTTGTAT | 1.01
14 | TTGTACTCG | 0.969
15 | AGGGGTAATG | 0.996
16 | GTGACGGCAT | 0.984
17 | AGCTGCGGCT | 0.955
18 | AGCTGGGTGG | 0.964
19 | ATGTTCTTTA | 1.06
20 | ACGGCCGCTT | 1.11
21 | TCTGATGAGG | 0.973
22 | AACGGTTTC | 1
23 | CCGTTTACGA | 1.4

Row | Sequence | switch fluorescence ratio
24 | CCAAGATCGG | 0.992
25 | ACCGGGAGTA | 1.04
26 | TCCAGATCCC | 1.05
27 | CCTAAAACAT | 1.02
28 | AATCCATGCT | 1.01
29 | CCTAGTCCAC | 1.09
30 | ATTGCAGTAG | 1.06
31 | CTGGTATCCA | 1
32 | CTTTCGAGTG | 0.942
33 | GGCATGCGTG | 0.968
34 | TTTGGGAGCC | 1.01
35 | GAATGCTTAC | 1.82
36 | TCCGCAAGGG | 2.44
37 | CCCCGATAGG | 1.03
38 | CGAATCTCTG | 0.96
39 | GTACGTCTCC | 1.06
40 | TCTGGTCCGA | 0.988
41 | AAAAAGAACA | 1.03
42 | TATGTTTACG | 1.06
43 | CAGATTATGA | 0.943
44 | ATGCCCGGGT | 1.02
45 | CAATATGTCT | 1.01
46 | TAGAAGTTTC | 0.98

Row | Sequence | switch fluorescence ratio
47 | ATTAGGCCGA | 0.982
48 | TAGCCATAAG | 0.957
49 | AGGGTTGTTC | 1.01
50 | TCAAGGGAAT | 1.01
51 | GATGAGGACT | 1.01
52 | CCGGGTATTT | 1.04
53 | GAGGTAATGA | 1.04
54 | AAGGGGTAAG | 0.983
55 | TGTGGGTAA | 0.983
56 | ATGTGCACCT | 1.02
57 | CCGCCCCGTG | 1.47
58 | AGGAGGGAGC | 1.02
59 | TACAGAAATG | 1.01
60 | TGGGATAAAT | 0.97
61 | TAAGCAGCGT | 1.04
62 | CGATGCCTTT | 0.999
63 | AAAGTATTTA | 1.06
64 | GCATCAGGGG | 1.45
65 | ATCGAAGTGC | 1.09
66 | CTCGACAGC | 1.06
67 | TTGGCGATCT | 1.04
68 | AATACATATG | 0.997
69 | AGAGTATTGT | 0.979

Row | Sequence | switch fluorescence ratio
70 | GATATTTGCT | 0.993
71 | GCCAGTGCCT | 1.03
72 | TACATCTAG | 0.967
73 | GGGGTATTCC | 0.996
74 | GTTAGATCAA | 0.983
75 | TACGATTTGT | 1.03
76 | GACGCCCGAA | 1.06
77 | CCGGTGAGGT | 1.04
78 | TCTGGCTCGC | 1.05
79 | ACCCTCCCAC | 2.4
80 | CGTACTTTTC | 1.06
81 | GCGCCACGTT | 0.965
82 | CTGATCGATG | 1.06
83 | CACGGAGTCT | 1.02
84 | GGCGCACCCC | 1
85 | TACCCGATCT | 1.06
86 | TAGTTATGTC | 0.905
87 | AATAAACCCT | 1.15
88 | ATATGCAGTC | 1.02
89 | CAAGTGTAGA | 1.01
90 | TGACTGGACC | 1.29
91 | ATTTACCACA | 1.08
92 | AGGCTTGAGA | 1.01

Row | Sequence | switch fluorescence ratio
93 | GTGGATCCTG | 1.04
94 | TGAGATTGAT | 1
95 | TGGGTGGAA | 1
96 | TGACGATT | 0.964
97 | TCGTGACAAG | 1
98 | GTGGCCTGGC | 0.976
99 | TGGCCAGCCT | 1.01
100 | ACGTTTGAGC | 1.06
101 | TCTGTGATGT | 1.03
102 | CGGAATCTGA | 0.987
103 | CGTCGGAGCA | 1.07
104 | TCAATGTCGG | 0.965
105 | CTAGTGCTTA | 1.01
106 | TCGCGGTGCA | 1.06
107 | AGTGCCAT | 0.96
108 | CCTGTTTTTG | 0.972
109 | AAGTGGGCAC | 0.976
110 | AGGTTTAGAG | 0.987
111 | AATTTCTCCG | 1.79
112 | GCCGTATCCA | 1.01
113 | TAAACAACTC | 1
114 | TGAGCTGAGC | 1.04
115 | ACCGAGGGTT | 1.02

Row | Sequence | switch fluorescence ratio
116 | GAAAATTGCT | 1.01
117 | GTGCCGAGGT | 1.04
118 | AAGGTTCTGT | 0.983
119 | GGCGGTTGCA | 0.993
120 | GCGGATCCAG | 1
121 | CGTCTCGTCA | 1.01
122 | GTGTTAGGCA | 1.03
123 | ATTTTACTCG | 0.979
124 | ACGCCTCGCA | 1.25
125 | CGCTGTCCTC | 1.17
126 | GTTGTCGTCA | 1
127 | GGGTTTCCTC | 1.07
128 | ACTAGAGACT | 1.03
129 | TACATGTTGC | 0.965
130 | CTCGATTTAG | 1.01
131 | ATGCAACAGT | 1.04
132 | GAAGTTGTAG | 1.02
133 | GTGTGTGCTC | 0.921
134 | CTAGATTTTT | 0.97
135 | ATGTTTCGTT | 1.01
136 | TCGTGATGGA | 1.05
137 | GCTCTCTGAA | 1.03
138 | TCATATTGGG | 1.01

Row | Sequence | switch fluorescence ratio
139 | TGAGTTAGCG | 1.04
140 | TGAGGAAATC | 2.31
141 | TGCATGTGCT | 1
142 | CTCCATGAA | 1.13
143 | TTAGGAATAA | 1.01
144 | GGCTCGAAAT | 1.08
145 | TTGGGGTCGC | 0.965
146 | CGGCCTAATA | 0.99
147 | GTTATCGGGT | 0.968
148 | GGGGCGCGAA | 0.972
149 | TCGCAAAGCA | 1.06
150 | GCTAAGAGGT | 1.01
151 | TAAGATATGT | 0.972
152 | GGACTATAGG | 0.92
153 | TACTGTTACT | 1.32
154 | TTTAGTACA | 1.01
155 | TTTATTCCAT | 1.02
156 | ACTGGCTCGT | 1
157 | CACAGATTTA | 1.01
